Measurements as given in publication PMC12040169 (PLOS Biology, 2025).
The list shows a part of the results.

Tested on: T1, C. trachomatis L2/434/Bu expressing GFP (CTL2-GFP)
T1 construct: L2/434/Bu GFP intracellular growth in HeLa cells
Design: species or system HeLa; C. trachomatis total inclusion area by high-content imaging, normalised to DMSO
Details: total inclusion area; 28.5 h, 10 µM; inhibitor
In short: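 High-content images of fixed, Hoechst-stained infected cultures supply inclusion area and count (growth) plus nuclei number (viability), complementing bulk GFP/resorufin fluorescence. MIC determination is unchanged from the primary assay.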

| SMILES | % of control remaining |
| --- | --- |
| CCN(C(=O)Cn1c(=O)cc(C)c2ccccc21)C1CCN(C)CC1 [CBK281871] | 111.88 |
| Cc1ccc(-c2csc(NC(=O)c3cccnc3)n2)cc1 [CBK072677] | 51.6493 |
| COCC(=O)N1CCc2sccc2C1c1ccc(NC(=O)c2ccccc2F)cc1 (stereo not shown) [CBK286469] | 103.502 |
| Nc1ncc(-c2ccncc2)nc1NC1CCCCC1 [CBK063604] | 83.9491 |
| O=S(=O)(c1ccccc1)N(CC(O)CN1CCCC1)c1cccc2ccccc12 (stereo not shown) [CBK264464C] | 104.832 |
| Cc1cc(CNC(=O)CCn2ccc(C)n2)on1 [CBK281485] | 96.8107 |
| Cn1nc(C(F)(F)F)c(C#N)c1Oc1ccc(C(C)(C)C)cc1 [CBK007398] | 28.5975 |
| COc1ccccc1[C@@H]1C[C@H](OC(=O)c2ccc(F)cc2)C(=O)N1C [CBK283598] | 87.713 |
| Cc1ccc(Cc2cnc(NC(=O)c3ccoc3C)s2)cc1C [CBK298277] | 71.0519 |
| CC(Cc1cccs1)NC(=O)C(C)n1ccnc1 (stereo not shown) [CBK282050] | 94.6753 |
| Cn1cc(C2CCCN2C(=O)c2cccc(C#N)c2)cn1 (stereo not shown) [CBK304849] | 34.9606 |
| CC(C)CN1CC2(CCN(C(=O)OCc3ccccc3)CC2)c2ccccc21 [CBK022626C] | 83.7781 |
| COc1ccc(OC)c(NS(=O)(=O)c2ccccc2)c1 [CBK099989] | 92.7491 |
| O=C(C1=C(O)C(=O)N(CCN2CCOCC2)C1c1ccccn1)c1cc2ccccc2o1 (stereo not shown) [CBK269576] | 104.19 |
| CC(C)COC(=O)n1ccc(C(=O)N2CCCCC2)n1 [CBK058828] | 55.0714 |
| FC(F)(F)c1ccc(Sc2cccc3ccccc23)nc1 [CBK089553] | 112.974 |
| COc1c[nH]c(C(=O)NC(CCn2ccnc2)c2ccccc2)cc1=O (stereo not shown) [CBK306743] | 81.8966 |
| O=C(CCS(=O)(=O)c1ccccc1)Nc1cc2ccccc2c(N2CCNCC2)n1 [CBK028419T] | 78.0632 |
| CC(C)C(=O)N1N=C2CCCCC2C1(O)C(F)(F)F (stereo not shown) [CBK028091] | 92.312 |
| Cc1noc(C)c1C(=O)NC(Cc1ccsc1)c1cccnc1 (stereo not shown) [CBK285100] | 102.594 |

| SMILES | % of control remaining |
| --- | --- |
| CN(C)CCN1CCN(c2nc(-c3cccc4ccccc34)cnc2N)CC1 [CBK063479] | 92.8389 |
| CC1(C)CC(NS(=O)(=O)c2ccc(Br)cc2)CC(C)(C)N1 [CBK266805] | 114.683 |
| O=C(c1ccccc1)N1CCN(c2ccc(-n3cccn3)nn2)CC1 [CBK287662] | 93.2772 |
| CS(=O)(=O)Nc1nn(-c2ccc(NC(=O)c3ccno3)cc2)c2ccccc12 [CBK048591] | 63.8719 |
| CC(Oc1cccc(Cl)c1)C(=O)N/N=C/c1cccc(Oc2ccccc2)c1 (stereo not shown) [CBK262113] | 100.916 |
| Cc1[nH]c(=O)[nH]c(=O)c1CC(=O)N1Cc2cc(Cl)ccc2OC2(CCOCC2)C1 [CBK286341] | 106.459 |
| COc1cccc(C(=O)N2CCC(NC(=O)c3ccccc3C(F)(F)F)CC2)c1 [CBK155024] | 94.4089 |
| Fc1ccc(-c2ccc(CNCCCN3CCOCC3)o2)cc1 [CBK278199C] | 100.935 |
| OCCN1CCN(c2nccc(C(F)(F)F)n2)CC1 [CBK028754] | 102.003 |
| CCCn1c(SCC(=O)N(C)Cc2ccc(OCC)cc2)n[nH]c1=O [CBK295132] | 108.542 |
| Cc1cnc(CNS(=O)(=O)c2ccc(C(C)C)cc2)cn1 [CBK044615] | 55.4524 |
| N#Cc1ccc(SCCOC(=O)c2cccs2)c([N+](=O)[O-])c1 [CBK066853] | 118.139 |
| CS(=O)(=O)c1ccc(-c2c[nH]c([C@@H]3COCCN3C3CCCCC3)n2)cc1 [CBK289299] | 94.7681 |
| Cc1[nH]c2c(C(=O)NCCCC3CCOC3)cccc2c1C (stereo not shown) [CBK282551] | 103.876 |
| CS(=O)(=O)c1ccc(-c2ccc3c(c2)COC(C2CCN(C(=O)OCc4ccccc4)CC2)O3)cc1 (stereo not shown) [CBK144643] | 48.8053 |
| O=C(O)C1C2CCC(O2)C1C(=O)NCc1ccco1 (stereo not shown) [CBK263675] | 106.674 |
| C#Cc1cn([C@H]2C[C@@H](O)[C@@H](CO)O2)c(=O)[nH]c1=O [CBK201207] | 95.6546 |
| CC1CC1C(=O)NCC(=O)N1CCN(S(=O)(=O)c2ccccc2[N+](=O)[O-])CC1 (stereo not shown) [CBK296747] | 113.551 |
| O=C(NC(C(=O)N/N=C/c1ccc(Cl)cc1Cl)c1n[nH]c(=O)c2ccccc12)c1ccccc1 (stereo not shown) [CBK261118] | 105.865 |
| Cc1ccc2nc(N3CCCC(O)C3)c(CN3CCSCC3)cc2c1 (stereo not shown) [CBK307000] | 104.159 |
